Measured values taken from article PMC4363092 (Journal of medicinal chemistry, 2014).

Tested on: NPP1,3 and NTPDase1,2,3,8
Conditions: pooled over the six enzymes

## Nc1ncnc2c1nc(S)n2[C@@H]1O[C@H](COP(=O)(O)OP(=O)(O)OP(=O)(O)O)[C@@H](O)[C@H]1O [compound 4]
  hydrolysis by NPP1,3 and NTPDase1,2,3,8: < 5%

## Nc1ncnc2c1ncn2[C@@H]1O[C@H](COP(=O)(O)CP(=O)(O)OP(O)(O)=S)[C@@H](O)[C@H]1O [compound 3]
  hydrolysis by NPP1,3 and NTPDase1,2,3,8: < 5%
